In all, about 190,000 compounds went through this assay and about 400 (0.21%) were called active. This list was built around the results that the source calls inconclusive (neither active nor inactive); the mix of calls is not that of the screen.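 How the source made its calls: active means percent activity GTP binding at least 20 points away from the 100% baseline, either down as inhibitor or up as activator; inconclusive means compound flagged as likely green fluorescent from well-wide comparison; inactive means the rest.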
Each compound was assayed against Cell division control protein 42 homolog (Homo sapiens) (UniProt P60953) (assay: wildtype Cdc42 fluorescent GTP binding changes, either direction – biochemical, multiplex bead flow cytometry, Bodipy-GTP, primary screen (AID 761;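 further: median bead fluorescence of bound Bodipy-FL-GTP at 100 nM; 0% = excess unlabeled GTP control and 100% = no compound control; below 100% means less GTP binding so inhibitor and above means activator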)). Settings: GST-Cdc42 beads, at 10 µM, actives lie on both sides.
Sequence of UniProt P60953 (P60953 whole entry, looked up): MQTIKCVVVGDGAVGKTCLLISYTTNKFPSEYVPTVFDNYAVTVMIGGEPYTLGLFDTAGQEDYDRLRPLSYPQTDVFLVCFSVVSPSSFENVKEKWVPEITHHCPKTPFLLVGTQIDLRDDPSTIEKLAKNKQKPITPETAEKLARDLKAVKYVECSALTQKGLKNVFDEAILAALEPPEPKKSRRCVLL

| Compound | percent activity (GTP binding) |
| --- | --- |
| CN(C)c1ccc(CN(C(=O)COc2ccc(Br)cc2)C2CCS(=O)(=O)C2)cc1 (centres undefined) | inconclusive: 94% |
| Cc1nnc2ccc(-c3cccc(NC(=O)c4ccc(Cl)nc4)c3)nn12 | inactive: 91% |
| CN1CCN(C(=O)/C=C/c2cn(-c3ccccc3)nc2-c2ccc3c(c2)OCCO3)CC1 | inconclusive: 108% |
| O=C(C#Cc1ccccc1)c1cccc([N+](=O)[O-])c1 | active: 74% |
| O=C(CC(NCc1ccccn1)C(=O)O)Nc1ccccc1Cl (centres undefined) | inconclusive: 92% |
| CCn1c(SCC(=O)Nc2oc(-c3ccccc3)c(-c3ccccc3)c2C#N)nnc1-c1cc(OC)cc(OC)c1 | inconclusive: 90% |
| CCOC(=O)Cc1csc(/N=C/c2c(O)n(-c3ccccc3C(F)(F)F)c(=O)c3ccccc23)n1 | inactive: 99% |
| C=CCn1c(SC)nc2sc3c(c2c1=O)CCc1ccccc1-3 | inconclusive: 100% |
| O=C(CCc1ccc(S(=O)(=O)NCCc2ccccc2)cc1)Nc1ccc2c(c1)OCO2 | active: 35% |
| C[C@@H]1C[C@H](Nc2ccccc2)c2ccccc2N1C(=O)c1cccnc1 | inconclusive: 103% |
| O=C(O)c1ccccc1CSc1ncccc1C(=O)O | inactive: 94% |
| Clc1cccc(Cl)c1/C=N\Nc1nccs1 | inconclusive: 13% |
| COc1cccc(-n2nnc3c(=O)n(Cc4ccc(Cl)cc4)cnc32)c1 | inconclusive: 92% |
| N#CC1=C(N)C(C#N)(C#N)C(c2cccnc2)C2CCCC=C12 (centres undefined) | inconclusive: 91% |
| CCn1cnc2sc(-c3ccccc3)cc2c1=O | inconclusive: 106% |
| CC(/C=C1\SC(=S)N(NC(=O)c2ccccc2C)C1=O)=C\c1ccccc1 | inconclusive: 88% |
| N#CC(C#N)=C(Nc1ccc(F)cc1)SCc1cccc(Br)c1 | active: 127% [activator] |
| Cc1cccc2cc(CN(CC3CCCO3)C(=O)c3ccco3)c3nnnn3c12 (centres undefined) | inconclusive: 97% |
| CSC1=NC(=O)/C(=C\c2cccc3ccccc23)S1 | inconclusive: 91% |
| COc1ccc(OC)c(NC(=O)CCc2c[nH]c3ccccc23)c1 | inconclusive: 94% |
| O=C(NCc1ccccc1)c1noc2c1CCCCC2 | inconclusive: 110% |
| Cc1ccc(N2CCN(S(=O)(=O)N3CCOCC3)CC2)cc1C | inactive: 102% |
| CCOc1cccc(/C(O)=C2/C(=O)C(=O)N(CCOC)C2c2ccncc2)c1 (centres undefined) | inconclusive: 491% |

| Compound | percent activity (GTP binding) |
| --- | --- |
| Oc1ccc(/C=N/Nc2nc(-c3ccc(Cl)cc3)cc(C(F)(F)F)n2)cc1 | inactive: 100% |
| COc1ccc(/C=N/NC(=O)c2cccnc2)cc1Cn1nc([N+](=O)[O-])c(Br)c1C | inconclusive: 64% |
| COc1ccc(CN2CCNC(=O)C2CC(=O)N(C)Cc2ccon2)c(OC)c1 (centres undefined) | inactive: 97% |
| Cc1ccn2c(=O)nc(SCc3cccc(C(F)(F)F)c3)nc2c1 | inactive: 94% |
| CCC(CC)C1C(C#N)=C(N)Oc2n[nH]c(C)c21 (centres undefined) | inconclusive: 107% |
| C=CCO/N=C/C1=C(O)C(C(=O)OC)C(C)(C)CC1=O (centres undefined) | inactive: 108% |
| Cc1cccc(-n2c(SCc3ccc(C#N)cc3)nnc2-c2c[nH]c3ccccc23)c1 | inconclusive: 100% |
| COc1cc(/C=N/NC(=O)CSc2cc(C)c(Br)cc2C)ccc1O | inconclusive: 95% |
| CCCOc1ccc(N2C(=O)CC(N(CCC)C(=O)CCC(=O)O)C2=O)cc1 (centres undefined) | inactive: 101% |
| O=C(N/N=C/c1c(O)n(Cc2ccccc2)c(=O)c2ccccc12)c1cccnc1 | active: 65% |
| Brc1ccccc1-n1nnc(-c2ccnc3ccccc23)n1 | inconclusive: 107% |
| CCN(CC)CCNC(=O)CCn1c(=S)[nH]c2cc3c(cc2c1=O)OCO3 | inconclusive: 105% |
| COc1ccc(/C=N/NC(=O)Nc2cccc3nsnc23)cc1OC | inconclusive: 85% |
| O=C(CCC(=O)N1CCN(S(=O)(=O)c2ccccc2)CC1)NC1CCCc2ccccc21 (centres undefined) | inconclusive: 105% |
| CNC(=O)C(C)NS(=O)(=O)c1ccc(F)cc1 (centres undefined) | active: 37% |
| CCOc1ccc(-n2c(C)nc(O)c2N=Nc2ccccc2)cc1 | inactive: 95% |
| Cc1nc(S(=O)(=O)N(C)Cc2ccccc2)c(C#N)c(C)c1Cl | inconclusive: 104% |
| CCCNC(=O)CCn1c(-c2ccc(C)cc2)cc(C(=O)OCC)c1C | inconclusive: 101% |
| Cc1cc(/C=C2\SC(=S)N(Cc3ccco3)C2=O)c(C)n1-c1cccnc1 | inconclusive: 148% |
| Cc1nn(C)c(C)c1N=Cc1c(O)ccc2ccccc12 | inconclusive: 98% |
| O=C(CSc1nc2ccccc2c(=O)n1CCCO)NCc1ccccc1 | inconclusive: 109% |
| CCOC(=O)c1sc(Nc2nc3cc4c(cc3s2)OCO4)cc1C | inconclusive: 191% |
| O=C(O)c1ccccc1C(=O)Nc1ccc(Br)c2cccnc12 | inconclusive: 88% |

| Compound | percent activity (GTP binding) |
| --- | --- |
| c1ccc(-n2cc(CNCCc3cscn3)c(-c3ccc4c(c3)OCO4)n2)cc1 | inactive: 98% |
| O=C(Cn1c2ccc(F)cc2c2nc3n(c(=O)c21)CCS3)Nc1ccc(Cl)cc1F | inconclusive: 93% |
| O=C(c1cccc(S(=O)(=O)N2CCc3ccccc32)c1)N1CCN(c2ccccn2)CC1 | inactive: 98% |
| CCN(CC)P(=O)(Nc1ccccc1Br)c1ccc(N(C)C)cc1NC(=O)c1ccco1 (centres undefined) | inconclusive: 84% |
| Cc1ccc(C(=O)NCCSC2CCCCC2)cc1S(=O)(=O)Nc1ccccc1 | inconclusive: 110% |
| COc1ccccc1NC(=O)Cn1cc(C#N)c2ccccc21 | inconclusive: 105% |
| COc1ccc(CCNC(=O)CO/N=C/c2cc3c(cc2Br)OCO3)cc1OC | inactive: 91% |
| O=C(O)c1cc(N2C(=O)C3C4C=CC(C4)C3C2=O)ccc1NCc1cccnc1 (centres undefined) | inconclusive: 105% |
| O=C(O)c1cc(N2N=C(C(F)(F)F)/C(=C/C=C/c3ccco3)C2=O)ccc1Cl | active: 79% |
| NS(=O)(=O)c1ccc(Nc2nc(-c3ccc(O)cc3O)cs2)cc1 | active: 77% |
| COc1ccc(CNC(=O)C2CC(=O)N(c3ccc(OCC(=O)N4C(C)CCCC4C)cc3)C2)cc1 (centres undefined) | inconclusive: 239% |
| Cc1cccc(NC(=O)CN2C(=O)N/C(=C/c3cc(C)n(C)c3C)C2=O)c1 | inconclusive: 95% |
| Cc1cc(C)nc(/N=C(\N)Nc2ccc(S(=O)(=O)Nc3nccc(C)n3)cc2)n1 | inactive: 90% |
| O=C(NC(=S)Nc1ccc(N2CCOCC2)c(Cl)c1)c1cccs1 | inconclusive: 95% |
| CC(C)CCN(C(=O)Cc1ccc(Cl)c(Cl)c1)c1c(N)n(Cc2ccccc2)c(=O)[nH]c1=O | inconclusive: 94% |
| O=C(CSc1nc2ccccc2c(=O)n1CCCN1CCOCC1)c1c[nH]c2ccccc12 | inconclusive: 96% |
| O=C(OC1CCCCC1)c1ccc(NC(=O)C2CCCCC2)cc1 | active: 79% |
| Cc1ccc(CN2CCN(Cc3ccc(C)s3)CC2CCO)cc1 (centres undefined) | inactive: 98% |
| CNc1ccccc(-c2ccc3ccccc3n2)c1=O | inactive: 100% |
| CCOc1ccc(NC(=O)c2ccc(NC(=O)COC(=O)Cc3ccc(OC)cc3)cc2)cc1 | inconclusive: 93% |
| C=CCNC(=O)/C(=C\C=C\c1ccccc1)NC(=O)c1ccc(OCCCC)cc1 | inconclusive: 90% |
| O=C(NCc1ccncc1)C(=O)NCC(c1ccco1)N1CCN(c2ccc(F)cc2)CC1 (centres undefined) | inconclusive: 100% |
| CCCN(C(=O)CSc1nnc(-c2ccoc2C)n1N)C1CCS(=O)(=O)C1 (centres undefined) | inconclusive: 105% |

| Compound | percent activity (GTP binding) |
| --- | --- |
| CC(=O)c1cccc(S(=O)(=O)Nc2cccc(S(=O)(=O)NC3=NCCC3)c2)c1 | inconclusive: 98% |
| COc1cccc(CNC(=O)CCC2CCCN(c3cc(C)nc(N4CCCC4)n3)C2)c1 (centres undefined) | inactive: 93% |
| Cc1ccc(S(=O)(=O)Nc2cccc3c2CCCC3)cc1 | inactive: 100% |
| COc1ccccc1NC(=O)c1ccccc1SC | inconclusive: 106% |
| O=C(NNC(=O)C1CCN(c2ncccn2)CC1)c1ccncc1 | inconclusive: 98% |
| CC1(C)C2C/C(=N\O)C(C)(/[N+]([O-])=C/c3cccc([N+](=O)[O-])c3)CC21 (centres undefined) | inactive: 96% |
| Cc1cccc(-n2c(SCC(N)=O)nnc2-c2ccccn2)c1C | inconclusive: 107% |
| Fc1ccc(Oc2nc(-c3ccccc3)nnc2C(F)(F)F)cc1 | inconclusive: 106% |
| N#C/C(=C/c1ccccc1[N+](=O)[O-])c1nc(C2CC2)cs1 | inconclusive: 95% |
| Cc1cccc(NC(=O)CSc2nc3[nH]ncc3c(=O)[nH]2)c1 | inactive: 97% |
| CCOc1cc(S(=O)(=O)NCc2ccccn2)ccc1Cl | inconclusive: 104% |
| Cc1ccc2c(c1)c1nnc(SCC(=O)Nc3ccccc3C(F)(F)F)nc1n2CC(=O)O | inactive: 90% |
| CC(=O)Nc1ccc(S(=O)(=O)NCCc2ccccn2)cc1 | inconclusive: 96% |
| CN1CCN(C2=C(Cl)C(=O)N(Cc3ccccc3)C2=O)CC1 | inconclusive: 106% |
| Nc1c(C(=O)NCc2ccco2)sc2nc3c(cc12)C(=O)CCC3 | inconclusive: 95% |
| CSCCC(NC(=O)c1ccco1)C(=O)NCc1ccc(F)cc1 (centres undefined) | inconclusive: 103% |
| CCC1=NN2C(=N)/C(=C\c3cccn3-c3c(C)cccc3C)C(=O)N=C2S1 | inconclusive: 86% |
| O=C(CSCc1nc2c(nnn2Cc2ccc(F)cc2)c(=O)[nH]1)Nc1cccc(C(F)(F)F)c1 | inconclusive: 90% |
| Cc1cc(C)n(-c2ccc(C(=O)Nc3cccc(S(=O)(=O)N(C)C)c3)cc2)n1 | inconclusive: 101% |
| CC1(c2ccccc2Cl)NC(=O)N(CC(=O)NCc2ccco2)C1=O (centres undefined) | inactive: 103% |

Reference: PubChem BioAssay AID761 (NMMLSC, 2007)
